Drawing on paper PMC10156912, this text covers cross-linked residues for two substances.

Holding throughout (experiment): cross-linking mass spectrometry
Common to all, as to conditions: DSSO, not determined

Test [1] addresses MORF4L1 (UniProt Q9UBU8).
Test [2] concerns the target HDAC2 (UniProt Q92769).
In test [3] the target is PHF12 (UniProt Q96QT6).

A number of entries come with more than one value. The other results are left out here. The source may hold further records. Some protein pairs were linked at several places, one record each.

Chain of SIN3B (O75182 whole entry): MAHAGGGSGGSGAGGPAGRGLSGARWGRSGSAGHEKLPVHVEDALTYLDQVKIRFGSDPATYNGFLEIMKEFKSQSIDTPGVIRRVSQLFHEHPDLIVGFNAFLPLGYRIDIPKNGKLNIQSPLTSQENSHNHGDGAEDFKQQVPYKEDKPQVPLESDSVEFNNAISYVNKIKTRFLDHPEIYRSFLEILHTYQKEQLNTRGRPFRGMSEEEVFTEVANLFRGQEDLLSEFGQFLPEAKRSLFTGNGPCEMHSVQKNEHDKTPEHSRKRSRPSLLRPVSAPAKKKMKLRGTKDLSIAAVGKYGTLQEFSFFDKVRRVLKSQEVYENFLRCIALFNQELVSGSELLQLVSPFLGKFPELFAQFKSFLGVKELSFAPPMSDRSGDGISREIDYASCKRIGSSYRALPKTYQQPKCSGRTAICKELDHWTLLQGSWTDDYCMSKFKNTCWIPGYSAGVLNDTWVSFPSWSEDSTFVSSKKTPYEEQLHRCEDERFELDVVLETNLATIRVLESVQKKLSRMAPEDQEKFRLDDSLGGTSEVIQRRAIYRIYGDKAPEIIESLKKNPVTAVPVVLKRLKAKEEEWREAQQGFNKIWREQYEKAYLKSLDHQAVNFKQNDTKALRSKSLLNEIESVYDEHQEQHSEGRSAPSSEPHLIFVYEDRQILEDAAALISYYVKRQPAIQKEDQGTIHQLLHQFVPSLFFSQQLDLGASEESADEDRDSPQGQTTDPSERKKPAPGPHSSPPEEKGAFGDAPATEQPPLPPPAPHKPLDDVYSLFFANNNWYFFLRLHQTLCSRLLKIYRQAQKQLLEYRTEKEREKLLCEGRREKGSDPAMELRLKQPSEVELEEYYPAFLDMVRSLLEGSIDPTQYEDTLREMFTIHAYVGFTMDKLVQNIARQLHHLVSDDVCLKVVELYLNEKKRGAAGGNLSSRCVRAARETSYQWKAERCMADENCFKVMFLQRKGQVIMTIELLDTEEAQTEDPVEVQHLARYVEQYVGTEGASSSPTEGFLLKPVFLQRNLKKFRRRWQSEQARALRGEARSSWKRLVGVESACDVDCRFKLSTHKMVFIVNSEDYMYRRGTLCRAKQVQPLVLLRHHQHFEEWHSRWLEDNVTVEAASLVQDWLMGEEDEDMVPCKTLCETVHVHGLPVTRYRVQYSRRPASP
Chain of UniProt Q9UBU8 (Q9UBU8 whole entry): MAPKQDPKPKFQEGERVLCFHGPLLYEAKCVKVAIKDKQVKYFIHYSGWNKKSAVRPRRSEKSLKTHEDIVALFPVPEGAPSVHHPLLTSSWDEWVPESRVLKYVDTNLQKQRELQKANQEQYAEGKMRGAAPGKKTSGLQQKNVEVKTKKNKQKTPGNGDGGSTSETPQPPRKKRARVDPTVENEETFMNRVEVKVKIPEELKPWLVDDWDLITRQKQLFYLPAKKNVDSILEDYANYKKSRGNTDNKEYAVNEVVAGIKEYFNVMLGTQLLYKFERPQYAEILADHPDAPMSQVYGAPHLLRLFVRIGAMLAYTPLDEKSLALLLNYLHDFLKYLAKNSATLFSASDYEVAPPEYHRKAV
Chain of PHF12, Q96QT6 (Q96QT6 whole entry): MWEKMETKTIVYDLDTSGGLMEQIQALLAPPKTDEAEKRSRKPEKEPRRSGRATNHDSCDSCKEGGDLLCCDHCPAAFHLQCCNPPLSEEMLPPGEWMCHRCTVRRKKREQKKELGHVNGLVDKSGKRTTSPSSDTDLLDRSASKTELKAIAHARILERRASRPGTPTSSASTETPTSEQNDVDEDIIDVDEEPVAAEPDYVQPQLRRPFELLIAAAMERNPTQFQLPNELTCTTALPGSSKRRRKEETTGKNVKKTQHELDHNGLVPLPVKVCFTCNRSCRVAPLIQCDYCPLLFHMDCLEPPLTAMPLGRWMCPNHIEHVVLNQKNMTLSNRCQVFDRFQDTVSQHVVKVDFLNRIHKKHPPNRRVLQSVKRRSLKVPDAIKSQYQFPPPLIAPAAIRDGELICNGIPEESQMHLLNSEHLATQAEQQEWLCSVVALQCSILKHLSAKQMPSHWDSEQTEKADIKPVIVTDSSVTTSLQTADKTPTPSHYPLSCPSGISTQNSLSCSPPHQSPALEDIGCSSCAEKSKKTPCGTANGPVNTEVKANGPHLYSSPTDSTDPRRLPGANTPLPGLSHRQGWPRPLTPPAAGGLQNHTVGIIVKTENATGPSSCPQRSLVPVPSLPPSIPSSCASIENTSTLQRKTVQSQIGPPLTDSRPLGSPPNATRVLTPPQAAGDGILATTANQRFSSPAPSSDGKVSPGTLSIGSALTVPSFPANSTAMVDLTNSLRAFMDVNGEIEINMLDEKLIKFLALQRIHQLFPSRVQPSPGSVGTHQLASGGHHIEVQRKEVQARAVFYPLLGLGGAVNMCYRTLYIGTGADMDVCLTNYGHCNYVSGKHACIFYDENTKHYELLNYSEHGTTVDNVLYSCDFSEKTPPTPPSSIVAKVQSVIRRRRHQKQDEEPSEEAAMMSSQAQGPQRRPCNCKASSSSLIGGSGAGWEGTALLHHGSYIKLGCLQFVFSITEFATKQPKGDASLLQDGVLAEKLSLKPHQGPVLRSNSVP
Chain of UniProt Q92769 (Q92769 whole entry): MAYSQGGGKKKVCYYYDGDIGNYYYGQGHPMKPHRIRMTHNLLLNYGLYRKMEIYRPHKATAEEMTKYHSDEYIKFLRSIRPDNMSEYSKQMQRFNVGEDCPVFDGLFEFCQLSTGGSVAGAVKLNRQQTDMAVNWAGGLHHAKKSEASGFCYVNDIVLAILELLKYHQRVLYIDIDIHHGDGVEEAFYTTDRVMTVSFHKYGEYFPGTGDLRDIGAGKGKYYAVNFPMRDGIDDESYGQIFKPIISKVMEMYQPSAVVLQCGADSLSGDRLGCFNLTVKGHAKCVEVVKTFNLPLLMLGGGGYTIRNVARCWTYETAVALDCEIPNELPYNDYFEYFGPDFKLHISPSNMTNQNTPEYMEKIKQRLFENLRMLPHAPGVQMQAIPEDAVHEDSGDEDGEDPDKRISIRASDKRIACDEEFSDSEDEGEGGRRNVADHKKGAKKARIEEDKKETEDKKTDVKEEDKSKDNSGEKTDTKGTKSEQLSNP

Take PHF12, Q96QT6: the cross-linked residues entry in test [1] was “K4 - K111 and K4 - K218 and K38 - K29 and K38 - K111 and K38 - K127 and K38 - K143 and K38 - K218 and K38 - K249 and K42 - K111 and K42 - K117 and K42 - K136 and K45 - K111 and K45 - K117 and K45 - K136 and K113 - K136 and K113 - K143 and K124 - K111 and K124 - K117 and K124 - K135 and K145 - K10 and K145 - K29 and K145 - K32 and K145 - K111 and K145 - K127 and K145 - K135 and K145 - K136 and K145 - K143 and K145 - K148 and K145 - K240 and K145 - K249 and K149 - K111 and K149 - K117 and K149 - K135 and K149 - K143 and K149 - K148 and K149 - K218 and K149 - K249 and K242 - K103 and K242 - K111 and K242 - K117 and K242 - K127 and K242 - K143 and K242 - K155 and K242 - K196 and K242 - K204 and K242 - K218 and K246 - K10 and K246 - K29 and K246 - K111 and K246 - K117 and K246 - K143 and K246 - K198 and K246 - K204 and K246 - K218 and K246 - K339 and K252 - K111 and K252 - K117 and K252 - K127 and K252 - K143 and K252 - K148 and K252 - K204 and K252 - K249 and K256 - K8 and K256 - K111 and K256 - K143 and K256 - K249 and K351 - K103 and K351 - K111 and K351 - K117 and K351 - K127 and K351 - K135 and K351 - K136 and K351 - K143 and K373 - K29 and K373 - K111 and K373 - K117 and K373 - K127 and K373 - K135 and K373 - K143 and K373 - K148 and K373 - K204 and K373 - K339 and K378 - K111 and K378 - K117 and K378 - K127 and K378 - K136 and K378 - K198 and K378 - K204 and K378 - K226 and K378 - K240 and K378 - K339 and K467 - K249”.

With SIN3B, O75182, the cross-linked residues result in test [2] was “K73 - K243 and K73 - K481 and K195 - K243 and K195 - K451 and K239 - K221 and K239 - K243 and K239 - K362 and K292 - K243 and K319 - K221 and K369 - K243 and K406 - K221 and K412 - K67 and K412 - K75 and K412 - K439 and K412 - K452”; in test [1], “K70 - K143 and K73 - K111 and K73 - K117 and K73 - K127 and K73 - K143 and K73 - K198 and K73 - K240 and K73 - K249 and K114 - K117 and K195 - K8 and K195 - K62 and K195 - K111 and K195 - K117 and K195 - K127 and K195 - K135 and K195 - K136 and K195 - K143 and K195 - K148 and K195 - K249 and K239 - K117 and K239 - K143 and K239 - K240 and K239 - K249 and K239 - K339 and K292 - K29 and K292 - K111 and K292 - K117 and K292 - K127 and K292 - K143 and K292 - K148 and K292 - K218 and K292 - K339 and K301 - K111 and K301 - K117 and K313 - K29 and K313 - K111 and K313 - K117 and K313 - K136 and K319 - K143 and K369 - K111 and K406 - K111 and K406 - K117 and K406 - K143 and K406 - K226 and K412 - K111 and K412 - K117 and K412 - K127 and K412 - K135 and K412 - K218”; in test [3], “K36 - K373 and K36 - K378 and K52 - K373 and K70 - K373 and K70 - K378 and K73 - K42 and K73 - K242 and K73 - K351 and K73 - K373 and K73 - K378 and K73 - K384 and K73 - K450 and K73 - K467 and K114 - K351 and K114 - K373 and K114 - K378 and K117 - K351 and K117 - K373 and K117 - K378 and K147 - K378 and K195 - K38 and K195 - K145 and K195 - K246 and K195 - K252 and K195 - K351 and K195 - K373 and K195 - K378 and K195 - K384 and K239 - K242 and K239 - K256 and K239 - K351 and K239 - K373 and K239 - K467 and K261 - K351 and K261 - K373 and K283 - K351 and K292 - K351 and K292 - K373 and K292 - K378 and K292 - K384 and K301 - K378 and K313 - K242 and K313 - K373 and K313 - K378 and K313 - K384 and K319 - K242 and K319 - K351 and K363 - K373 and K363 - K378 and K369 - K373 and K369 - K378 and K369 - K384 and K369 - K467 and K406 - K378 and K412 - K378”.
